Screen size: about 150,000 compounds; about 540 (0.36%) showed an effect of 50% or more. The list shows a part of the results.
tested on: Plasmodium falciparum; assay: Primary screen in NF54 nanoGlo assay, in single point, at 2uM, 72h; a lower Z score goes with more inhibition; assay type: functional, Erythrocyte; details: timepoint 72 hour

Structure (SMILES)	% Inhibition [%]	Z score
O=C(NCC1CCCCC1)[C@H]1CCCN(c2nccn3nc(-c4ccccc4Cl)cc23)C1	-7	0.78
COc1ccc(-c2nc(CCNC(=O)c3cccc(Cl)c3)n[nH]2)cc1	-7	1.35
CC(C)c1ccc(NC(=O)[C@H]2CCN(C)C(=O)C2)cc1F	-7	1.2
CCNC(=O)N1CCN(c2ccc(-c3noc(-c4ccc(C#N)cc4F)n3)cc2)CC1	-12	2.34
COc1ccc(-c2cc(C(=O)N[C@H](C)c3nnc4ccccn34)[nH]n2)cc1OC	-10	1.28
CC(C)N1CCN([C@H]2CCOC3(CCN(C(=O)Cc4ccccc4)CC3)C2)CC1	0	-0.02
Cc1ccccc1[C@@H](NC(=O)c1cc(CO)ccn1)c1ccncc1	3	-0.41
CCN(CC)S(=O)(=O)c1ccc(=O)n(CC(=O)N2CCc3[nH]c4ccc(F)cc4c3C2)c1	-15	1.92
O=C(Nc1cc(Cl)ccc1NC1CC1)c1cc[nH]n1	-12	1.68
CCOc1ccc(Br)cc1NC(=O)N[C@@H](C)CCO	6	-0.79
O=C(NCc1ccccc1Cl)c1ccc(-c2noc(C3CCCC3)n2)cc1	-15	1.52
CCn1cc(CN(CCOC)CC2CCN(Cc3ccccc3F)CC2)cn1	-8	1.55
Cc1ccnc(NS(=O)(=O)N(C)C)c1	-6	0.78
CC1CCC2(CC1)OC[C@H](CNC(=O)N(C)CCc1cnccn1)O2 (stereo partly drawn)	-16	2
CC(C)(C)n1ccc(NC(=O)Cc2csc(-c3ccoc3)n2)n1	-7	0.95
Cn1c(=O)c2cn(S(=O)(=O)c3cccc(Cl)c3)nc2n(C)c1=O	5	-0.65
NC(=O)NCC(=O)NCc1cc(-c2ccccc2)n[nH]1	-19	2.37
c1ccc(CN2CC[C@H](c3nc4ccccc4s3)C2)cc1	30	-3.37
O=C(c1cnccn1)N1CC(N2C(=O)C3CC=CCC3C2=O)C1 (stereo not drawn)	-1	0.26
COCC(=O)N1CCC[C@H](Oc2cncc(OC)n2)C1	-6	1.08
N[C@@H]1COc2cccc(-c3cnn(C(F)(F)F)c3)c2C1	-12	2.18

Structure (SMILES)	% Inhibition [%]	Z score
COc1ccccc1N1CCN(C(=O)C[C@H]2C(=O)NCCN2C(C)C)CC1	-5	0.86
c1ccc(-c2cc(-c3cccnc3)nc3ccc4ccccc4c23)cc1	4	-0.79
Cc1nc2ccc(NCC(=O)NC3(C#N)CCCC3)cc2s1	0	-0.01
Cc1cccc(-c2ccc3nc(-c4ccc(Cl)cc4)c(CN4CCN(C(=O)COCc5ccccc5)CC4)n3c2)c1	-4	0.58
O=C1N[C@@H](C2CC2)C(=O)N1c1cccc2ccccc12	3	-0.35
CCC1(C(=O)N2CCO[C@@H](CNC(C)=O)C2)CCCCC1	27	-3.93
CN(Cc1ccccc1)C(=O)C(F)(F)C(F)(F)C(F)(F)C(F)(F)F	5	-0.6
N#Cc1ccccc1C(=O)NCC1(Cn2cccn2)CC1	-6	1.03
CC(C)c1nc(CNC(C)(C)C(=O)O)cs1	5	-0.61
COc1cc(C)c(CN2CCOc3c(O)cc(-c4cccs4)cc3C2)cc1C	-10	1.96
CCOc1ccc(C(=O)N[C@H]2CCN(Cc3csc(C)n3)C[C@@H]2O)cc1	-6	0.98
CC(C)Cn1nc2n(c1=O)CC1CCC(C2)N1C(=O)c1cccnc1 (stereo not drawn)	-16	2.17
CCOC(=O)c1ccc(NC(=O)CN2C(=O)CCn3nc(-c4cn(C)c5ccccc45)cc32)cc1	1	-0.24
Cn1cnn(CC(=O)N2CCCc3ccc(Cl)c(Cl)c32)c1=O	-8	0.68
CCN1CCN(C(=O)[C@@]2(CCOC)CCN(C(=O)OC(C)(C)C)C2)CC1	-6	0.67
CCCCc1c(C)nn(-c2nc(C)c(C(=O)N3CCOCC3)s2)c1C	-22	1.98
CCOC(C)(C)C(=O)N1CC[C@H](CC(=O)NC)C1	-2	0.34
Cc1nn(C)cc1S(=O)(=O)n1c(=O)cc(C(F)(F)F)c2cn(CC(C)C)nc21	28	-3.11
CN(C)C1(CNCc2cccc3nonc23)CCCCC1	-2	0.33
Cn1cc([C@@H]2CCCN2Cc2nc(-c3ccsc3)no2)cn1	-8	1.07
CC1=C(C(=O)N2CCN(C)CC2)[C@H](c2ccccc2C)n2ncnc2N1	37	-4.14

Structure (SMILES)	% Inhibition [%]	Z score
Cc1cc(CNCc2cccnc2)c(C)n1-c1ccc(Cl)cc1	-5	0.55
Cc1cnc(C(C)CNC(=O)NC2CCN(C3CCCC3)C2)s1 (stereo not drawn)	1	-0.05
CC(O)CCN(C)C(=O)NC(C)Cc1ccsc1 (stereo not drawn)	-16	1.6
CC(C)Oc1cc(C(=O)N[C@@H]2CCCC[C@H]2S(C)(=O)=O)ccn1	1	-0.13
C[C@H](NC(=O)[C@H]1CC[C@H](CNS(=O)(=O)c2ccccc2)CC1)C(=O)NCC1CCCO1 (stereo partly drawn)	8	-0.96
Cc1cc(NC(=O)c2ccc(Cl)c(Cl)c2)nn1-c1ccc(F)cc1F	-3	0.31
O=C(Cn1ncc(=O)c2ccccc21)NCCC1CC2CCC1C2 (stereo not drawn)	-7	0.74
Cc1cc(C(=O)NCCn2ccnc2)no1	-16	1.61
Cc1cccc(NC(=O)CN(C[C@H]2CCCO2)C(=O)c2ccsc2)c1C	2	-0.31
O=C(c1ccccc1F)N1C[C@@H]2CN(CC3CCC3)C[C@]2(C(=O)O)C1	-2	0.38
Cc1cnc(CNc2cccc(CS(=O)(=O)c3ccccc3)c2)o1	-4	0.35
CC(C)c1ccc(O[C@@H](C)CNC(=O)N2CCN(c3nncn3C)CC2)cc1	0	-0.03
COC1(CNC(=O)[C@H]2CCN(C(=O)c3ccccc3)C2)CCC(C(F)F)CC1 (stereo partly drawn)	-8	1.12
CN(C)S(=O)(=O)N(CCN1CCCC1)[C@H]1CCN(S(=O)(=O)c2ccc(F)cc2)C1	-2	0.29
COc1ccc(C(=O)N2CCC3(CC2)C[C@@H]3NS(C)(=O)=O)cc1F	8	-1.27
CC(C)(C)OC(=O)N1CCc2ccc(NCc3cc[nH]n3)cc2C1	-2	0.31
CCN(C[C@H]1COc2ccccc2O1)c1ccc(C#N)cn1	-14	2.69
Cc1ccc(-c2nc(CNC(=O)Cn3cncn3)[nH]c2-c2ccccn2)cc1	-14	1.3
Cc1noc2ncnc(N3CCCC[C@H]3c3nccs3)c12	-7	0.7
Nc1nc(N2CC[C@@]3(CCCN(C4CCCCC4)C3=O)C2)c2cn[nH]c2n1	-3	0.45
CCN(Cc1nc2c(s1)C[C@@H](C)CC2)C(=O)c1cc(OC)no1	-3	0.35

Structure (SMILES)	% Inhibition [%]	Z score
CCC(CC)CNC[C@](C)(O)c1cnn(C)c1	-16	1.4
CCOc1ccc(NC(=O)c2c(NCc3ccc(OC)cc3)sc3c2CCC3)cc1	-5	0.85
Cc1nnc(CN2C(=O)N[C@]3(CC(C)(C)OC3(C)C)C2=O)s1	-3	0.41
O=C1NCCN1CCNc1nc(-c2c[nH]c3ccccc23)nc2c1CNC2	-10	1.22
Cc1n[nH]c(CCC(=O)NCc2nc(C)c(C)n2C)c1C	0	0.04
CCc1nonc1NC(=O)COc1ccc(Cl)cc1Cl	-7	0.92
Cc1nnc2n1C[C@@H](C(=O)OC(C)(C)C)NC2	-8	0.9
Cc1noc(C)c1CN(C)Cc1cc(C2CC2)on1	-6	0.89
Cc1ccnc(N2C(=O)C3CCCCC3C2=O)c1 (stereo not drawn)	-11	2.04
CCCN(CC#N)C(=O)C(C)(C)Oc1ccc(C#N)cc1	-13	1.94
COCCC(C)CCS(=O)(=O)N1CCCC(C2OCCO2)C1 (stereo not drawn)	2	-0.29
Cc1nccn1CC1CCN(C(=O)Nc2cc(F)c3c(c2)NC(=O)CO3)CC1	-32	2.78
CCN(CC)CC1(NC(=O)c2ccc(C)cc2OC)CC1	8	-1.55
COCCN1CCN(c2cc(N3CCN(CCOC)C(C)C3)n3ncnc3n2)CC1C (stereo not drawn)	-3	0.26
O=C(Cc1cccs1)NC[C@@H](c1cccnc1)S(=O)(=O)c1ccccc1	-12	1.53
CN(C)[C@H]1CCN(CC(=O)NCc2cc(F)cc(C(F)(F)F)c2)C1	2	-0.36
Cc1ccnc(N2CCCC3C(NC(=O)C4CCC4)C(C)(C)C32)n1 (stereo not drawn)	-10	1.4
CCN1CCN(Cc2cnc(N3CCCC3)s2)[C@H]2CS(=O)(=O)C[C@H]21	1	-0.17
Cc1nc(C(=O)NCCc2ccc3[nH]ncc3c2)c(C)o1	10	-1.15
CC[C@H](C)N(CC(=O)O)C(=O)c1noc2c1CCCC2	-6	0.86
Cc1cc(S(N)(=O)=O)c(F)cc1F	4	-0.63
